From article PMC10201506 (Signal Transduction and Targeted Therapy, 2023)

Biological target: SARS-CoV-2 3CL^pro (Severe acute respiratory syndrome coronavirus 2, UniProt P0DTC1)
Experiment: Rapid dilution assay (inhibition reversibility)
Type: biochemical
Conditions: 10 μM compound incubated with 2 μM enzyme for 20 min

O=C(c1cc(=O)[nH]c2ccccc12)N1CCN(c2ccc(Cl)c(Cl)c2)CC1CN1CCOCC1 (stereo not shown) [JZD-07, 4-(4-(3,4-Dichlorophenyl)-2-(morpholinomethyl)piperazine-1-carbonyl)quinolin-2(1H)-one]
recovery of 3CLpro activity after 100-fold dilution: more than 70%
